Data from PubChem BioAssay AID463173 (ICCB-Longwood Screening Facility, Harvard Medical School, 2010).
The campaign covered roughly 52,000 compounds. About 4,300 (8.3%) were called active. Rule as the data show it: active = survival mostly below about 52% (no sharp cut-off); inactive = mostly above about 56%. This is one part of the list.

Tested on: DeltatarO mutant
Assay: growth inhibition of S. aureus wild type versus tarO mutant, primary screen, teichoic acid synthesis inhibitors, RN4220, OD600 (AID 463173)
Conditions: OD600, 18 h, hits give low values, screened at 18.75 µg/mL (by protocol)

SMILES	survival
COc1ccc(CNC(=O)c2cc3c(=O)n4cccc(C)c4nc3s2)cc1	inactive: 68%
Cc1ccc(C(=O)O/N=C(/c2nonc2N)N(C)C)cc1	inactive: 107%
CCOC(=O)c1ccc(NC(=O)C(C)N(c2ccc(OCC)cc2)S(C)(=O)=O)cc1 (stereo not drawn)	inactive: 62%
Cc1c(C(=O)Nc2ccc(F)c(F)c2)oc2ccc(S(=O)(=O)N(C)C3CCCCC3)cc12	inactive: 95%
COc1ccc(CCNC(=O)CCCCn2c(=O)c3ccccc3n(Cc3ccc(Cl)cc3)c2=O)cc1OC	inactive: 70%
COc1cccc(CNC(=O)c2oc3ccc4c(c3c2C)C(=O)CC(C)(C)O4)c1OC	inactive: 90%
CCN(CC)CCn1c2c(c(SCC(=O)Nc3cccc(C(F)(F)F)c3)nc1=O)CCC2	inactive: 74%
CCOc1ccc(-c2cn3c(n2)sc2cc(C(=O)NCCCN(CC)CC)ccc23)cc1	active: 15%
Cc1cccc(CNC(=O)Cc2ccc(NC(=O)N3CCCCc4ccccc43)cc2)c1	inactive: 80%
Cc1ccc(N(C)C(=O)Cn2cc(S(=O)(=O)N3CCCC3)c(S(=O)(=O)N3CCCC3)c2)cc1	inactive: 67%
COc1ccc(-c2sccc2C(C)C(=O)O)cc1 (stereo not drawn)	inactive: 99%
Cc1cc(C)cc(C(=O)Nc2ccc(N3CCN(S(C)(=O)=O)CC3)cc2)c1	inactive: 63%
Cc1ccccc1NC(=O)CSc1nc2ccc(NC(=O)c3ccccc3)cc2s1	inactive: 64%
CC(=O)OCc1cnc(C)c2oc(=O)c(C(=O)Nc3ccc(C)cc3Cl)cc12	inactive: 128%
CCCOC(=O)C(N)c1ccccc1 (stereo not drawn)	inactive: 100%
CC1CCC(Nc2ncnc3onc(-c4ccc(Cl)cc4)c23)CC1 (stereo not drawn)	active: 47%
COc1ccc(-c2coc3c2c(C)cc2oc(=O)c(C)c(C)c23)cc1	inactive: 73%
CC(C)(O)c1cc(=O)sc2nc3ccccc3n12	inactive: 83%
Cc1nnc(NCc2ccco2)s1	inactive: 73%
O=C(CCc1ccccc1)Nc1nccs1	inactive: 95%

SMILES	survival
CCCn1cnc2c1c(=O)n(C)c(=O)n2C	inactive: 87%
CCCCN1C(=O)CN(C2CCCCCC2)C(=O)C1c1ccc(OC(C)C)c(OC)c1 (stereo not drawn)	inactive: 120%
COc1ccc(C(=O)n2nc(C)cc2C)cc1	inactive: 80%
Cc1cccc(OCC(=O)Nc2ccc3nc(Nc4cccc(C(F)(F)F)c4)cc(C)c3c2)c1	inactive: 101%
COc1ccc(NC(=O)Cn2cnc3ccc(S(=O)(=O)N4CCC(C)CC4)cc3c2=O)cc1Cl	inactive: 115%
Cc1ccc(-n2ccnc(NCCc3ccc(S(N)(=O)=O)cc3)c2=O)c(C)c1	inactive: 102%
CC(=O)Nc1ccc(C2=CSC3=NCCN23)cc1	inactive: 82%
CC(C)(C)OC(=O)N1CCC(c2c(C(=O)NCCN3CCCC3)cnn2-c2ccc(Cl)cc2)CC1	inactive: 75%
CCOc1ccc(NC(=O)Cn2cc(C(=O)c3ccc(F)cc3)c(=O)c3cc4c(cc32)OCCO4)cc1	inactive: 65%
Cc1ccc(-n2ncc(C(=O)N3CCN(Cc4ccccc4)CC3)c2C2CCN(C(=O)OC(C)(C)C)CC2)cc1	inactive: 123%
CC(=O)c1cc(-c2ccccc2)n(CCC(=O)Nc2ccc(C(C)C)cc2)c1C	inactive: 94%
CC(=O)c1cc2c(cc1N/C(=N/S(=O)(=O)c1ccccc1)c1ccc(Cl)cc1)OCO2	active: 0%
COc1ccccc1OCCn1c(C(C)Oc2ccccc2)nc2ccccc21 (stereo not drawn)	inactive: 66%
COc1ccccc1-c1nnc(SCC(N)=O)o1	inactive: 89%
CCN(CC)CCNC(=O)c1ccc(-c2nc(CS(=O)(=O)c3ccc(C)cc3)c(C)o2)cc1	inactive: 84%
CC(C)c1ccc(NC(c2nnc(-c3ccccc3)o2)c2ccc(F)cc2Cl)cc1 (stereo not drawn)	inactive: 84%
Cc1oc(-c2ccc(C(=O)NCc3ccc(F)cc3)cc2)nc1CS(=O)c1ccccc1 (stereo not drawn)	inactive: 86%
CCOc1ccc(/C=C/c2nc(C#N)c(NC3CCCCC3)o2)cc1	inactive: 65%
Cc1cccc(C(=O)Nc2cc3c(cc2N2CCOCC2)n(C)c(=O)n3C)c1	inactive: 85%
CCOc1ccc(NC(=O)Cn2cc(C(=O)c3ccc(C)cc3)c(=O)c3cc4c(cc32)OCCO4)cc1	inactive: 127%

SMILES	survival
O=C(O)CC(NS(=O)(=O)c1ccc(Br)s1)c1ccccc1 (stereo not drawn)	inactive: 82%
O=C(NCCCN1CCN(c2ccccc2)CC1)c1nnc(Cc2ccc(F)cc2)o1	inactive: 83%
CCN1C(C(=O)c2ccccc2)=C(OC(=O)COc2ccccc2)c2ccccc2S1(=O)=O	active: 41%
Nc1c(-c2nc(-c3ccccc3)cs2)c2ccccn2c1C(=O)c1ccc2c(c1)OCO2	inactive: 68%
CC1=C(C(=O)Nc2cc(C)ccc2C)C2(CCCCCC2)OC1=O	inactive: 89%
Cc1cc(C)c(S(=O)(=O)N2CCN(Cc3nc4ccc(C)cc4o3)CC2)c(C)c1	inactive: 92%
Cc1onc(-c2ccc(Br)cc2)c1C(=O)Nc1ccc(Br)cc1F	inactive: 86%
CCOC(=O)c1scc(-c2ccc(C)cc2)c1S(=O)(=O)Nc1cccc(CC)c1	inactive: 77%
Cc1cccc(C(=O)Nc2cccnc2)c1	inactive: 102%
NC(CCc1nc2ccccc2[nH]1)C(=O)O (stereo not drawn)	inactive: 77%
COc1ccc(-n2c(SCC(=O)Nc3nnc(C)s3)nc3c([nH]c4ccccc43)c2=O)cc1	inactive: 83%
COc1cccc2sc(N3CCN(C(=O)CS(=O)(=O)c4ccc(Cl)cc4)CC3)nc12	active: -4%
CC(C)N(C(=O)c1cc2c(Cl)nc3ccccc3c2s1)C1CCCCC1	active: 16%
O=C(NCCc1ccccc1)c1c(O)c2cccc3c2n(c1=O)CC3	inactive: 79%
CCC1SC(C)C/C(=N\O)C1C (stereo not drawn)	inactive: 105%
Cc1cc(C)cc(NC(=O)C2CCN(c3cc(C)nc4c(-c5ccc(Cl)cc5)c(C)nn34)CC2)c1	inactive: 86%
Cc1ccc(S(=O)(=O)c2nnn3c2nc(NCc2cccs2)c2sccc23)cc1C	inactive: 32%
COC(=O)C(C)NC(=O)N1CCN(c2nnc(C)c3c(C)n(-c4ccc(Cl)cc4)nc23)CC1 (stereo not drawn)	inactive: 102%
